As a reminder, the Kd is a measure of binding affinity in units of concentration. The term koff denotes the rate constant with which the complex falls apart. Lower therefore signals a long-lived complex. What is called kon is a measure of how fast the partners come together.

Where only a bound is given, the exact number is not on record here.

The target of assay [1] is SARS-CoV-2 WA-1 Spike on pseudovirions (SARS-CoV-2). Briefly: cell-based or functional assay.
Assay [2] addresses T1, SARS-CoV-2 NTD WA-1 (SARS-CoV-2).
T1 construct: domain: NTD
Kind of assay: BLI, ShAb-Fc on AHC probe, NTD analyte. (BLI is a label-free optical method that tracks binding on a fibre tip over time.)

B1: ShAb19a (ShAb19 VNAR-3c-Fc) (Fc fusion)
chain: ARVDQTPQTITKATGESLTINCVLRDASYALGRTCWYRKKSGSTNEESISLGGRYVETVNSGSKSFSLRINDLTVEDGGTYRCGAHRWWTVCGMPAPYAESGGGTVVTVNSREPKSCDKGLEVLFQ[no letters for human IgG1 Fc and a few adjoining residues]
B1: in assay [1], the “pseudovirus neutralization IC50” value was found to be 0.845 µg/mL and the “pseudovirus neutralization IC80” value is over 5 µg/mL.

B2: ShAb12a (ShAb12 VNAR-3c-Fc) (Fc fusion)
chain: ARVDQTPRSVTKETGESLTINCVLRDTNCPLYAAYWYRKSPGSTNEETIWATGRYVQTVNSGLKTFSLRINDLTSEDSGTYRCNGQTWCPATKNNDISGGGTVVTVNSREPKSCDKGLEVLFQ[no letters for human IgG1 Fc and a few adjoining residues]
On to B2, for which, in assay [2], the Kd worked out at 178 nM, the koff amounted to 0.00553 s⁻¹ and the kon was 31000 M⁻¹ s⁻¹. In addition, in assay [1], the “pseudovirus neutralization IC50” value is 3.21 µg/mL and the “pseudovirus neutralization IC80” value came to 21 µg/mL.

B3: ShAb22a (ShAb22 VNAR-3c-Fc) (Fc fusion)
chain: ARVDQTPQTITKETGESLTINCVLRDNNCALSSTYWYREKSGSTNLESISLGGRYVETVNSGSKSFSLRINDLTVEDSGTYRCKVWGNEGSYDCGLESAVYGGGTVVTVNSREPKSCDKGLEVLFQ[no letters for human IgG1 Fc and a few adjoining residues]
In the case of B3, in assay [1], the “pseudovirus neutralization IC50” value turned out to be 0.197 µg/mL and the “pseudovirus neutralization IC80” value was 1.23 µg/mL.

B4: ShAb05a (ShAb05 VNAR-3c-Fc) (Fc fusion)
chain: ARVDQTPQTITKETGESLTINCVVRDSNCALGSTYWYRKKSGSTNEESITKGGRSVETVNSGSKSFSLRINDLTVEDSGTYRCKVLSIGWHDPMGLRGCDVYGGGTVVTVNSREPKSCDKGLEVLFQ[no letters for human IgG1 Fc and a few adjoining residues]
Regarding B4, in assay [1], the “pseudovirus neutralization IC50” value came out at 1.89 µg/mL and the “pseudovirus neutralization IC80” value is over 50 µg/mL.

B5: ShAb15a (ShAb15 VNAR-3c-Fc) (Fc fusion)
chain: ARVDQTPRSVTKETGESLTINCVLRDANYALGSTCWYRKKSGSTNGESISKGGRYVETVNSGSKSFSLRINDLTVEDGGTYRCGVGVVFGRCDFCALERKNYAVCGGGTVVTVNSREPKSCDKGLEVLFQ[no letters for human IgG1 Fc and a few adjoining residues]
In assay [2], B5 showed a Kd of 73.8 nM, a koff of 0.00745 s⁻¹ and an on-rate (kon) of 101000 M⁻¹ s⁻¹.

B6: ShAb23a (ShAb23 VNAR-3c-Fc) (Fc fusion)
chain: ARVDQTPQTITKETGESLTINCVLRDSNCALGSTYWYRKKSGSTNEENISKGGRYVETVRSGSKSLSLRINDLTVEDSGTYRCKVSRLSWYPESRWNCDNYDVYGDGTAVTVNSREPKSCDKGLEVLFQ[no letters for human IgG1 Fc and a few adjoining residues]
With B6, in assay [1], the “pseudovirus neutralization IC50” value turned out to be 0.033 µg/mL and the “pseudovirus neutralization IC80” value came out at 0.21 µg/mL.

B7: ShAb10a (ShAb10 VNAR-3c-Fc) (Fc fusion)
chain: ARVDQTPQTITKETGESLTINCVLRDSNCALSSTYWYRKKSGSTNEESISKGGRYVETVNSGSKSFSLRINDLTVEDSGTYRCHVRLRYDCESVIDFRVYGGGTVVTVNSREPKSCDKGLEVLFQ[no letters for human IgG1 Fc and a few adjoining residues]
Turning to B7, in assay [1], the “pseudovirus neutralization IC50” value is 0.116 µg/mL and the “pseudovirus neutralization IC80” value came out at 0.551 µg/mL.

B8: ShAb29a (ShAb29 VNAR-3c-Fc) (Fc fusion)
chain: ARVDQTPQTITKETGESLTINCVLRDSNCALSRTYWYRKKSGSTDEESISKGGRYVETVNSGSKSFSLRINDLTVEDSGTYRCNVYSWYGGDHNSWDWRSDPAMVCGDVYGGGTVVTVNSREPKSCDKGLEVLFQ[no letters for human IgG1 Fc and a few adjoining residues]
Regarding B8, in assay [1], the “pseudovirus neutralization IC50” value was over 5 µg/mL and the “pseudovirus neutralization IC80” value is over 5 µg/mL.

B9: ShAb13a (ShAb13 VNAR-3c-Fc) (Fc fusion)
chain: ARVDQTPRSVTKETGESLTINCVLRDASYALGSTCWYRKKSGSTNEERISKGGRYVETVNSGSKSFSLRINDLTVEDGGTYRCGVWPGYNWCGSCDYRGDYNFCGDGTAVTVNSREPKSCDKGLEVLFQ[no letters for human IgG1 Fc and a few adjoining residues]
As to B9, in assay [2], binding was put at a Kd of 55.7 nM, the koff was 0.00227 s⁻¹ and the kon stood at 40700 M⁻¹ s⁻¹. In assay [1], the “pseudovirus neutralization IC50” value was determined as 7.02 µg/mL and the “pseudovirus neutralization IC80” value is over 50 µg/mL.

B10: ShAb04a (ShAb04 VNAR-3c-Fc) (Fc fusion)
chain: ARVDQTPQTITKETGESLTINCGLRDSNCALSSTYWYRKKSGSTNEESISKGGRYVETVNSGPLTFSLRINDLTVEDSGTYRCKVSCLAIPIGPHYDVYGGGTVVTVNSREPKSCDKGLEVLFQ[no letters for human IgG1 Fc and a few adjoining residues]
In assay [2], B10 had a Kd of 44.2 nM, a dissociation rate constant (koff) of 0.00139 s⁻¹ and a kon of 31300 M⁻¹ s⁻¹. Besides, in assay [1], the “pseudovirus neutralization IC50” value is 3.91 µg/mL and the “pseudovirus neutralization IC80” value is over 50 µg/mL.

B11: ShAb24a (ShAb24 VNAR-3c-Fc) (Fc fusion)
chain: ARVDQTPQTITKETGESLTINCVLRDSNCPLSSTYWYRKKSGSTNEESIPKAGRYVETVNHGSKSFSLRINDLTVEDSGTYRCKTASNVCRSGGRTSYHYDVYGDGTAVTVNSREPKSCDKGLEVLFQ[no letters for human IgG1 Fc and a few adjoining residues]
B11: in assay [1], the “pseudovirus neutralization IC50” value is over 2 µg/mL and the “pseudovirus neutralization IC80” value was over 2 µg/mL.

B12: ShAb09a (ShAb09 VNAR-3c-Fc) (Fc fusion)
chain: ARVDQTPQTITKETGESLTIDCVLRDSNCALSSTHWYRKKSGSTNEERILQGRRYVETVNSGSKSFSLRINDLRVEDSGTYRCKVYWGNSWQDKFCPGLGSYEYGGGTVVTVNSREPKSCDKGLEVLFQ[no letters for human IgG1 Fc and a few adjoining residues]
Take B12: the “pseudovirus neutralization IC50” value in assay [1] amounted to 0.142 µg/mL.

B13: ShAb06a (ShAb06 VNAR-3c-Fc) (Fc fusion)
chain: ARVDQTPRSVTKETGESLTINCVLRDASYALGSTCWYRKKSGSTNEESISKGGRYVETVNSGSKSFSLRINDLTVEDGGTYRCGVGRGLGVGCDYPLCSYSYAACGDGTAVTVNSREPKSCDKGLEVLFQ[no letters for human IgG1 Fc and a few adjoining residues]
Take B13: in assay [2], the affinity, expressed as Kd, was 105 nM; the koff stood at 0.0102 s⁻¹; the on-rate (kon) was 97000 M⁻¹ s⁻¹. Moreover, in assay [1], the “pseudovirus neutralization IC50” value came to 2.35 µg/mL and the “pseudovirus neutralization IC80” value turned out to be 15 µg/mL.

B14: ShAb07a (ShAb07 VNAR-3c-Fc) (Fc fusion)
chain: ARVDQTPQTITKETGESLTINCVLRDASYALGSTCWYRKKSGSTNWESIGKGGRYVETVNSGSKSFSLRINDLTVEDGGTYRCGVGRGAGVGCDYPLCSYSYAACGGGTVVTVNSREPKSCDKGLEVLFQ[no letters for human IgG1 Fc and a few adjoining residues]
Turning to B14, in assay [2], the Kd was determined as 82.8 nM, the koff stood at 0.0074 s⁻¹ and the kon was 89400 M⁻¹ s⁻¹. Further, in assay [1], the “pseudovirus neutralization IC50” value was 2.07 µg/mL and the “pseudovirus neutralization IC80” value was over 50 µg/mL.

B15: ShAb18a (ShAb18 VNAR-3c-Fc) (Fc fusion)
chain: ARVDQTPRSVTKETGESLTINCVLREARYELGKTCWYRKRAGSTNEESISAGGRYVETVISGSKSFSLRINDLTVEDGGTYRCGVPPAGWCSKVSCDHVGAGVLEPAACGGGTVVTVNSREPKSCDKGLEVLFQ[no letters for human IgG1 Fc and a few adjoining residues]
Regarding B15, in assay [1], the “pseudovirus neutralization IC50” value turned out to be 0.447 µg/mL and the “pseudovirus neutralization IC80” value was 4.47 µg/mL.

B16: ShAb08a (ShAb08 VNAR-3c-Fc) (Fc fusion)
chain: ARVDQTPKTITKETGESLTINCVLRDSNCAASSTYWYRKKSGSNNEESISKGGRYVETVNSGSKSFSLRINDLTVEDSGTYRCNVEGYSCGLYSVEDYYGGGTVVTVNSREPKSCDKGLEVLFQ[no letters for human IgG1 Fc and a few adjoining residues]
As to B16, in assay [1], the “pseudovirus neutralization IC50” value amounted to 3.04 µg/mL and the “pseudovirus neutralization IC80” value is over 50 µg/mL.

B17: ShAb11a (ShAb11 VNAR-3c-Fc) (Fc fusion)
chain: ARVDQTPQTITKETGESLTINCVLRDSNCTLSRTYWYRKKSGSTNLESISKGGRYVETVNSGSKSFSLRINDLTVEDSGTYRCASKIRYDCQGIIAYDIYGGGTVVTVNSREPKSCDKGLEVLFQ[no letters for human IgG1 Fc and a few adjoining residues]
For B17, in assay [2], binding was characterised by a dissociation constant (Kd) of 8.4 nM, the koff was determined as 0.000756 s⁻¹ and the kon was 90400 M⁻¹ s⁻¹. In addition, in assay [1], the “pseudovirus neutralization IC50” value was found to be 0.91 µg/mL and the “pseudovirus neutralization IC80” value came to 12.7 µg/mL.

B18: ShAb16a (ShAb16 VNAR-3c-Fc) (Fc fusion)
chain: ARVDQTPRSVTKETGESLTINCVLRDATYALGNTCWYRKKSGSSTEESISKGGRYVETVNSGSKSFSLRINDLTVEDGGTYRCGVWPGYNWCGSCDYVHDALHVFCGGGTVVTVNSREPKSCDKGLEVLFQ[no letters for human IgG1 Fc and a few adjoining residues]
In assay [2], B18 came in with a Kd of 8.5 nM, a koff of 0.000713 s⁻¹ and a kon of 84000 M⁻¹ s⁻¹.

B19: ShAb21a (ShAb21 VNAR-3c-Fc) (Fc fusion)
chain: ARVDQTPRSVTKETGESLTINCVLREARYELGRTCWYRKKSGSRNEESISEGGRYVETVNSGSKSFSLRINDLTVEDGGTYRCGVPAAGWCPERCAPDPPYAVCGGGTVVTVNSREPKSCDKGLEVLFQ[no letters for human IgG1 Fc and a few adjoining residues]
B19: in assay [1], the “pseudovirus neutralization IC50” value amounted to 1.59 µg/mL and the “pseudovirus neutralization IC80” value was over 2 µg/mL.

Values taken from US20230331823A1 (HENRY M JACKSON FOUNDATION FOR THE ADVANCEMENT OF MILITARY …, published 2023).
